# Measured values: patent US9873709B2 (priority 2013, dated 2018)
# Molecular target: isolated recombinant JAK1 kinase domain (Homo sapiens (Human), UniProt P23458)
# Settings: read-out: JAK1 Ki; isolated recombinant JAK1 kinase domain, 25 μM ATP
row,SMILES,Ki [nM]
1,"CN1CCN(C(=O)C2COCCN2C(=O)c2ccc(Nc3nc4c(C5=CCN(C(=O)CCC(F)(F)F)CC5)cccn4n3)cc2)CC1 (centres unmarked) [Example 2-262, 4,4,4-trifluoro-1-[4-[2-[4-[3-(4-methylpiperazine-1-carbonyl)morpholine-4-carbonyl]anilino]-[1,2,4]triazolo[1,5-a]pyridin-8-yl]-3,6-dihydro-2H-pyridin-1-yl]butane-1-one]",0.91
2,"CC1CC(C(=O)N2CC=C(c3cccn4nc(Nc5ccc(C(=O)N(C)C6CCN(C)CC6)cc5)nc34)CC2)C1 (centres unmarked) [Example 2-263, N-methyl-4-[[8-[1-(3-methylcyclobutanecarbonyl)-3,6-dihydro-2H-pyridin-4-yl]-[1,2,4]triazolo[1,5-a]pyridin-2-yl]amino]-N-(1-methyl-4-piperidyl)benzamide]",1.43
3,"CN1CCC(OC(=O)c2ccc(Nc3nc4c(C5=CCN(C(=O)CCC(F)(F)F)CC5)cccn4n3)cc2)CC1 [Example 2-264, (1-methyl-4-piperidyl) 4-[[8-[1-(4,4,4-trifluorobutanoyl)-3,6-dihydro-2H-pyridin-4-yl]-[1,2,4]triazolo[1,5-a]pyridin-2-yl]amino]benzoate]",0.81
4,"O=C(CCC(F)(F)F)N1CC=C(c2cccn3nc(Nc4ccc(C(=O)N5CCCCC5Cc5ccccn5)cc4)nc23)CC1 (centres unmarked) [Example 2-265, 4,4,4-trifluoro-1-[4-[2-[4-[2-(2-pyridylmethyl)piperidine-1-carbonyl]anilino]-[1,2,4]triazolo[1,5-a]pyridin-8-yl]-3,6-dihydro-2H-pyridin-1-yl]butan-1-one]",0.56
5,"CC(C)CN1CCN(C(=O)c2ccc(Nc3nc4c(C5=CCN(C(=O)CCC(F)(F)F)CC5)cccn4n3)cc2)CC1 [Example 2-266, 4,4,4-trifluoro-1-[4-[2-[4-(4-isobutylpiperazine-1-carbonyl)anilino]-[1,2,4]triazolo[1,5-a]pyridin-8-yl]-3,6-dihydro-2H-pyridin-1-yl]butan-1-one]",1.34
6,"CN1CCC(N(C)C(=O)c2ccc(Nc3nc4c(C5=CCN(C(=O)CCC(F)(F)F)CC5)cccn4n3)cc2)C1 (centres unmarked) [Example 2-267, N-methyl-N-(1-methylpyrrolidin-3-yl)-4-[[8-[1-(4,4,4-trifluorobutanoyl)-3,6-dihydro-2H-pyridin-4-yl]-[1,2,4]triazolo[1,5-a]pyridin-2-yl]amino]benzamide]",1.61
7,"CC1CN(CCNC(=O)c2ccc(Nc3nc4c(C5=CCN(C(=O)CCC(F)(F)F)CC5)cccn4n3)cc2)CC(C)O1 (centres unmarked) [Example 2-268, N-[2-(2,6-dimethylmorpholin-4-yl)ethyl]-4-[[8-[1-(4,4,4-trifluorobutanoyl)-3,6-dihydro-2H-pyridin-4-yl]-[1,2,4]triazolo[1,5-a]pyridin-2-yl]amino]benzamide]",0.6
8,"CC1CC(C)CN(CCNC(=O)c2ccc(Nc3nc4c(C5=CCN(C(=O)CCC(F)(F)F)CC5)cccn4n3)cc2)C1 (centres unmarked) [Example 2-269, N-[2-(3,5-dimethyl-1-piperidyl)ethyl]-4-[[8-[1-(4,4,4-trifluorobutanoyl)-3,6-dihydro-2H-pyridin-4-yl]-[1,2,4]triazolo[1,5-a]pyridin-2-yl]amino]benzamide]",0.88
9,"CN1CCN(CCNC(=O)c2ccc(Nc3nc4c(C5=CCN(C(=O)CCC(F)(F)F)CC5)cccn4n3)cc2)CC1 [Example 2-270, N-[2-(4-methylpiperazin-1-yl)ethyl]-4-[[8-[1-(4,4,4-trifluorobutanoyl)-3,6-dihydro-2H-pyridin-4-yl]-[1,2,4]triazolo[1,5-a]pyridin-2-yl]amino]benzamide]",0.62
10,"O=C(NCCCN1CCOCC1)c1ccc(Nc2nc3c(C4=CCN(C(=O)CCC(F)(F)F)CC4)cccn3n2)cc1 [Example 2-271, N-(3-morpholinopropyl)-4-[[8-[1-(4,4,4-trifluorobutanoyl)-3,6-dihydro-2H-pyridin-4-yl]-[1,2,4]triazolo[1,5-a]pyridin-2-yl]amino]benzamide]",0.48
11,"O=C(CCC(F)(F)F)N1CC=C(c2cccn3nc(Nc4ccc(C(=O)N5CCCC5c5ccncc5)cc4)nc23)CC1 (centres unmarked) [Example 2-273, 4,4,4-trifluoro-1-[4-[2-[4-[2-(4-pyridyl)pyrrolidine-1-carbonyl]anilino]-[1,2,4]triazolo[1,5-a]pyridin-8-yl]-3,6-dihydro-2H-pyridin-1-yl]butan-1-one]",0.49
12,"CN1CCC(CCNC(=O)c2ccc(Nc3nc4c(C5=CCN(C(=O)CCC(F)(F)F)CC5)cccn4n3)cc2)CC1 [Example 2-274, N-[2-(1-methyl-4-piperidyl)ethyl]-4-[[8-[1-(4,4,4-trifluorobutanoyl)-3,6-dihydro-2H-pyridin-4-yl]-[1,2,4]triazolo[1,5-a]pyridin-2-yl]amino]benzamide]",0.62
13,"CNC(=O)C1CN(C(=O)c2ccc(Nc3nc4c(C5=CCN(C(=O)CCC(F)(F)F)CC5)cccn4n3)cc2)CCN1C (centres unmarked) [Example 2-275, N,1-dimethyl-4-[4-[[8-[1-(4,4,4-trifluorobutanoyl)-3,6-dihydro-2H-pyridin-4-yl]-[1,2,4]triazolo[1,5-a]pyridin-2-yl]amino]benzoyl] piperazine-2-carboxamide]",1.15
14,"CNC(=O)C1CN(C)CCN1C(=O)c1ccc(Nc2nc3c(C4=CCN(C(=O)CCC(F)(F)F)CC4)cccn3n2)cc1 (centres unmarked) [Example 2-276, N,4-dimethyl-1-[4-[[8-[1-(4,4,4-trifluorobutanoyl)-3,6-dihydro-2H-pyridin-4-yl]-[1,2,4]triazolo[1,5-a]pyridin-2-yl]amino]benzoyl] piperazine-2-carboxamide]",1.29
15,"O=C(CCC(F)(F)F)N1CC=C(c2cccn3nc(Nc4ccc(C(=O)N5CCC(Cc6cccnc6)CC5)cc4)nc23)CC1 [Example 2-277, 4,4,4-trifluoro-1-[4-[2-[4-[4-(3-pyridylmethyl)piperidine-1-carbonyl]anilino]-[1,2,4]triazolo[1,5-a]pyridin-8-yl]-3,6-dihydro-2H-pyridin-1-yl]butan-1-one]",0.68
16,"CN1CCC(N(C)C(=O)c2ccc(Nc3nc4c(C5=CCN(C(=O)C6CCC6)CC5)cccn4n3)cc2)CC1 [Example 2-282, 4-[[8-[1-(cyclobutanecarbonyl)-3,6-dihydro-2H-pyridin-4-yl]-[1,2,4]triazolo[1,5-a]pyridin-2-yl]amino]-N-methyl-N-(1-methyl-4-piperidyl)benzamide]",2.61
17,"CN1CCC(N(C)C(=O)c2ccc(Nc3nc4c(C5=CCN(C(=O)C6CCC(C#N)CC6)CC5)cccn4n3)cc2)CC1 (centres unmarked) [Example 2-285, 4-[[8-[1-(4-cyanocyclohexanecarbonyl)-3,6-dihydro-2H-pyridin-4-yl]-[1,2,4]triazolo[1,5-a]pyridin-2-yl]amino]-N-methyl-N-(1-methyl-4-piperidyl)benzamide]",6.43

# Now from value to compound:
row,Ki [nM],SMILES
1,1.21,"O=C(CCC(F)(F)F)N1CC=C(c2cccn3nc(Nc4ccc(C(=O)N5CCCN(c6ccncc6)CC5)cc4)nc23)CC1 [Example 2-278, 4,4,4-trifluoro-1-[4-[2-[4-[4-(4-pyridyl)-1,4-diazepane-1-carbonyl]anilino]-[1,2,4]triazolo[1,5-a]pyridin-8-yl]-3,6-dihydro-2H-pyridin-1-yl]butan-1-one]"
2,0.76,"O=C(CCC(F)(F)F)N1CC=C(c2cccn3nc(Nc4ccc(C(=O)N(CCO)Cc5cccnc5)cc4)nc23)CC1 [Example 2-279, N-(2-hydroxyethyl)-N-(3-pyridylmethyl)-4-[[8-[1-(4,4,4-trifluorobutanoyl)-3,6-dihydro-2H-pyridin-4-yl]-[1,2,4]triazolo[1,5-a]pyridin-2-yl]amino]benzamide]"
3,0.67,"O=C(CCC(F)(F)F)N1CC=C(c2cccn3nc(Nc4ccc(C(=O)N5CCCCC5c5cccnc5)cc4)nc23)CC1 (centres unmarked) [Example 2-280, 4,4,4-trifluoro-1-[4-[2-[4-[2-(3-pyridyl)piperidine-1-carbonyl]anilino]-[1,2,4]triazolo[1,5-a]pyridin-8-yl]-3,6-dihydro-2H-pyridin-1-yl]butan-1-one]"
4,2.53,"CN1CCC(N(C)C(=O)c2ccc(Nc3nc4c(C5=CCN(C(=O)C6CCCC6)CC5)cccn4n3)cc2)CC1 [Example 2-281, 4-[[8-[1-(cyclopentanecarbonyl)-3,6-dihydro-2H-pyridin-4-yl]-[1,2,4]triazolo[1,5-a]pyridin-2-yl]amino]-N-methyl-N-(1-methyl-4-piperidyl)benzamide]"
5,4.65,"CN1CCC(N(C)C(=O)c2ccc(Nc3nc4c(C5=CCN(C(=O)OC6COC6)CC5)cccn4n3)cc2)CC1 [Example 2-283, oxetan-3-yl-4-[2-[4-[methyl-(1-methyl-4-piperidyl)carbamoyl]anilino]-[1,2,4]triazolo[1,5-a]pyridin-8-yl]-3,6-dihydro-2H-pyridine-1-carboxylate]"
6,12.3,"CN1CCC(N(C)C(=O)c2ccc(Nc3nc4c(C5=CCN(c6ccccc6)CC5)cccn4n3)cc2)CC1 [Example 2-284, N-methyl-N-(1-methyl-4-piperidyl)-4-[[8-(1-phenyl-3,6-dihydro-2H-pyridin-4-yl)-[1,2,4]triazolo[1,5-a]pyridin-2-yl]amino]benzamide]"
7,8.99,"CN1CCC(N(C)C(=O)c2ccc(Nc3nc4c(C5=CCN(C(=O)N6CC7(COC7)C6)CC5)cccn4n3)cc2)CC1 [Example 2-286, N-methyl-N-(1-methyl-4-piperidyl)-4-[[8-[1-(2-oxa-6-azaspiro[3.3]heptane-6-carbonyl)-3,6-dihydro-2H-pyridin-4-yl]-[1,2,4]triazolo[1,5-a]pyridin-2-yl]amino]benzamide]"
8,1.1,"CN1CCC(N(C)C(=O)c2ccc(Nc3nc4c(C5=CCN(C(=O)CCC#N)CC5)cccn4n3)cc2)CC1 [Example 2-287, 4-[[8-[1-(3-cyanopropanoyl)-3,6-dihydro-2H-pyridin-4-yl]-[1,2,4]triazolo[1,5-a]pyridin-2-yl]amino]-N-methyl-N-(1-methyl-4-piperidyl)benzamide]"
9,1.32,"CN1CCC(N(C)C(=O)c2ccc(Nc3nc4c(C5=CCN(C(=O)CCC(F)(F)F)CC5)cccn4n3)cc2)CC1 [Example 2-288, N-methyl-N-(1-methyl-4-piperidyl)-4-[[8-[1-(4,4,4-trifluorobutanoyl)-3,6-dihydro-2H-pyridin-4-yl]-[1,2,4]triazolo[1,5-a]pyridin-2-yl]amino]benzamide]"
